{"source": "PubChem BioAssay AID2071", "about": "(Sanford-Burnham Center for Chemical Genomics, 2009)", "note": "This is one part of the list. These are further read-outs of the screen, such as a control signal, another cell line or another target. No call is given for them. The list favours compounds with an active or inconclusive main result."}
{"assay": "NALP1 inflammasome inhibitors in reconstituted yeast, colorimetric, S. cerevisiae, triplicate retest (AID 2071)", "conditions": "S. cerevisiae NALP1/ASC/caspase-1 growth, X-gal OD620, 72 h, at 20 µM, stronger effect = higher value", "units": {"inhibition": "%"}}
{"smiles": "CCOc1ccc(C(=O)C(CN2CCOCC2)c2ccccc2)cc1", "note": "(stereo not given)", "inhibition": 108}
{"smiles": "CCOc1cc(CNC2CCCC2)cc(Cl)c1OCc1ccc(F)cc1", "inhibition": 105}
{"smiles": "Cc1ccccc1Nc1cc(C)c2c(O)cccc2n1", "inhibition": 56.4}
{"smiles": "Clc1ccc2c(N/N=C/c3cccc(Br)c3)ccnc2c1", "inhibition": 59}
{"smiles": "C1CCC(C(CC2CCCCN2)C2CCCCC2)CC1", "note": "(stereo not given)", "inhibition": 106}
{"smiles": "Clc1ccc2c(N/N=C/c3ccc(Br)cc3)ccnc2c1", "inhibition": 56.1}
{"smiles": "COc1ccc(NCc2ccc([N+](=O)[O-])s2)cc1", "inhibition": 74.5}
{"smiles": "COc1ccc(CCNCc2ccc(OCc3ccccc3)cc2)cc1", "inhibition": 107}
{"smiles": "O=C(NN1C(=O)c2cc(Br)ccc2NC1c1cc(Br)cc(Br)c1O)c1ccncc1", "note": "(stereo not given)", "inhibition": 71.4}
{"smiles": "O=C(O)c1ccc(S(=O)(=O)/N=C2\\C=C(Nc3ccccc3F)C(=O)c3ccccc32)cc1", "inhibition": 66}
{"smiles": "COc1cccc(F)c1C(C[N+](=O)[O-])c1c(N)n(C)c(=O)n(C)c1=O", "note": "(stereo not given)", "inhibition": 117}
{"smiles": "CN(C)CCCN(C(=O)c1ccc2c(c1)CCCC2)c1nc2ccc(F)cc2s1", "inhibition": 101}
{"smiles": "O=C(Nc1nc(-c2ccccn2)cs1)c1ccc(Cl)s1", "inhibition": 82.7}
{"smiles": "Cc1ccc2c(Cl)c(C)c(N3CCCCC3)nc2n1", "inhibition": 56.8}
{"smiles": "COC(=O)c1ccc(Oc2ccc(S(=O)(=O)N3CCCCC3)cc2N)cc1", "inhibition": 63.8}
{"smiles": "CCOC(=O)COc1ccc2ccccc2c1/C=C/[N+](=O)[O-]", "inhibition": 68.9}
{"smiles": "Cc1ccc(/C=N/Nc2ccnc3cc(Cl)ccc23)c(C)c1", "inhibition": 105}
{"smiles": "CCCCCCCCCCCCCCCCn1cc[n+](CC(C)=O)c1", "inhibition": 101}
{"smiles": "CCOCCCNCc1ccc(OCc2ccccc2Cl)cc1", "inhibition": 57.6}
{"smiles": "CCCCCOc1ccc(Br)cc1CSC(=N)N", "inhibition": 85.3}
{"smiles": "CC(NCCC(c1ccccc1)c1ccccc1)c1ccccc1", "note": "(stereo not given)", "inhibition": 91.2}
{"smiles": "CCOC(=O)/C=C/C(=O)Nc1nccs1", "inhibition": 55.2}
{"smiles": "Cc1ccc2sc(N(CCCN(C)C)C(=O)CCS(=O)(=O)c3ccccc3)nc2c1C", "inhibition": 106}
{"smiles": "CNC(=O)c1nnsc1S(=O)c1ccc(Cl)cc1", "note": "(stereo not given)", "inhibition": 108}
{"smiles": "COc1ccccc1OCC(=O)NCCSCc1cccc(Cl)c1", "inhibition": 53.6}
{"smiles": "COCCCN(CCCN)Cc1ccco1", "inhibition": 81.1}
{"smiles": "CCCCCOc1ccc(Br)cc1/C(C)=N/NC1=NCCN1", "inhibition": 105}
{"smiles": "COc1ccc2[nH]c3c(C)c4ccncc4c(C)c3c2c1", "inhibition": 97.2}
{"smiles": "Cc1ccc(NC(=O)/C=C\\C(=O)NCC(=O)O)cc1C", "inhibition": 112}
{"smiles": "CN(C)CCN(C(=O)/C=C/c1cccs1)c1nc2c(F)cc(F)cc2s1", "inhibition": 80.7}
{"smiles": "CC[n+]1c(/C=C/N(C)c2ccccc2)n(-c2ccccc2)c2ccc(-c3nc4ccccc4s3)cc21", "inhibition": 103}
{"smiles": "Cc1cc(Cl)c(OCCCn2ccnc2)c(Br)c1", "inhibition": 64.3}
{"smiles": "COc1ccc(OC)c(S(=O)(=O)Nc2ccc(O)c3ccccc23)c1", "inhibition": 105}
{"smiles": "Cc1cccc(/C=C/C(=O)c2ccc(NC3=NCCCS3)cc2)c1", "inhibition": 102}
{"smiles": "COc1ccccc1C(C[N+](=O)[O-])c1c(N)n(C)c(=O)n(C)c1=O", "note": "(stereo not given)", "inhibition": 114}
{"smiles": "CC1CCCN(CCOCCOc2ccc(Br)cc2Cl)C1", "note": "(stereo not given)", "inhibition": 54.3}
{"smiles": "N#Cc1ccc(NC(=O)Nc2ccc(Cl)cc2)cc1", "inhibition": 72.4}
{"smiles": "CCCCCCCCCCCCCCCCn1cc[n+](C)c1", "inhibition": 100}
{"smiles": "Cc1[nH]n(-c2ccccc2)c(=O)c1C(C[N+](=O)[O-])c1ccc(Cl)cc1", "note": "(stereo not given)", "inhibition": 96.6}
{"smiles": "COc1ccc(NCc2ccc([N+](=O)[O-])s2)c(OC)c1", "inhibition": 58.6}
{"smiles": "CN(C)CCCN(C(=O)c1ccc2c(c1)CCCC2)c1nc2ccc(Cl)cc2s1", "inhibition": 109}
{"smiles": "CC[n+]1c(/C=C2\\Sc3ccccc3N2C)ccc2cccc(C)c21", "inhibition": 101}
{"smiles": "COc1ccccc1N1CCN(CCCCCCOc2ccc(F)cc2)CC1", "inhibition": 60.6}
{"smiles": "O=C(N1CCN(c2ccccn2)CC1)C(Cl)(Cl)Cl", "inhibition": 57.2}
{"smiles": "Cn1ncc(S(=O)(=O)Cc2ccccc2)c(Cl)c1=O", "inhibition": 114}
{"smiles": "Cc1onc(-c2ccccc2Cl)c1C(=O)N1C=CC(C(F)(F)F)=NCC1", "inhibition": 81.3}
{"smiles": "Cc1sc(N)nc1-c1ccc(Oc2ccccc2)cc1", "inhibition": 54.3}
{"smiles": "CCOC(=O)CNC(c1ccccc1)c1cc(Br)ccc1NC(=O)CCN1CCOCC1", "note": "(stereo not given)", "inhibition": 92.6}
{"smiles": "CCCCCCC(=O)N(O)C1CC(=O)N(Cc2ccccc2)C1=O", "note": "(stereo not given)", "inhibition": 51.1}
{"smiles": "CCCCCCCCCCCCCCCC[n+]1cccc2ccccc21", "inhibition": 83.3}
{"smiles": "CCOC(=O)c1ccc(N2C(=O)CC(N3CCCC(C)C3)C2=O)cc1", "note": "(stereo not given)", "inhibition": 85.5}
{"smiles": "CC(C)(C)C1=CC(=O)C(=O)C(C(C)(C)C)=C1", "inhibition": 82}
{"smiles": "O=C1CSC(=S)N1c1cccc(O)c1", "inhibition": 108}
{"smiles": "O=C(CCN1CCc2ccccc2C(c2ccccc2)C1)c1ccc2c(c1)OCCO2", "note": "(stereo not given)", "inhibition": 61.6}
{"smiles": "O=C(N/N=C/c1cc(Cl)ccc1O)c1ccc(Br)cc1", "inhibition": 51.8}
{"smiles": "Cn1nc(-c2ccc(Cl)cc2)nc2c(=O)n(C)c(=O)nc1-2", "inhibition": 98}
{"smiles": "COCCN=C1Sc2nc3ccc(C)cc3cc2CN1Cc1ccco1", "inhibition": 62.5}
{"smiles": "COc1cc(NC(=O)c2cccs2)cc(OC)c1", "inhibition": 71.3}
{"smiles": "CN1c2ccccc2Sc2cc(N)ccc21", "inhibition": 59.9}
{"smiles": "Cc1nc(C)c(/C(O)=C/c2nc3ccccc3oc2=O)s1", "inhibition": 59.3}
